# Measured values published in the supplement of paper PMC11417369.
# ± gives the standard deviation of the averaged measurements. The list shows a part of the results.
# Tested on: PfAP2-EXP AP2 domain (GST-tagged)
# Assay: gcPBM binding intensity (ln(normalized median fluorescence intensity)); higher = stronger DNA binding
# Outline: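 GST-fused DNA-binding domains of P. falciparum, expressed in E. coli, were applied at about 25 μg on average for 1 h to an Agilent 4 × 180k array of primer-extended double-stranded 36-bp intergenic genomic probes and negative controls. Binding intensity is the highest Masliner-normalised natural-log median intensity across replicate spots of either probe orientation, measured with Alexa488 anti-GST antibody and a 488 nm scan.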
row,Sequence,gcPBM binding intensity (ln)
1,ATAAAAAAAAATAACACACAGACATAAGAATAAATA [CACACA_site4162],8.84 ± 0.5
2,TAGCCATTTTTATATTGTACTTATATAATCACATTT [XGTACX_site4407],8.72 ± 0.4
3,ATATAAGAAAAGCACACACACACAAAAAAAAAAAAA [CACACA_site2827],8.41 ± 0.65
4,ATTCAAAAGATGTATACACACATGTGTATAATATAA [CACACA_site7197],8.4 ± 0.26
5,AATAATATATATATAATACACACTATTATAATCACA [CACACA_site1310],8.34 ± 0.38
6,TTTTAATGTACCAGTGTGCACCTTGCGTACATATTA [GTGCAC_site9957],9.28 ± 0.45
7,GCTTATAAAGGCAGAAGTACTGTATTCCTATATATA [XGTACX_site8865],8.38 ± 0.28
8,AAAAAAAAAAAAAAATGTACATATGGTATGCATATA [XGTACX_site3225],8.68 ± 0.57
9,AATAATAAAAAATATACACACATATATATATATATA [CACACA_site25],10.2 ± 0.37
10,TTGGCATACGGACACACACACACACCCAGACATATA [CACACA_site4492],8.63 ± 0.59
11,TATACCTATAAATACACACACATATAAATAAATATA [CACACA_site6153],8.6 ± 0.42
12,TTATACAAATTCATGGGTACAAACAAACATATATCA [XGTACX_site6237],8.77 ± 0.52
13,AAAATATATACTCCATCACACACCAAAAAGAAAAAA [CACACA_site2542],8.58 ± 0.58
14,ATACATAAATACAAACGTACATACATACATACATAC [XGTACX_site7824],9.32 ± 0.25
15,CAGCTCTTAAGAATTACACACATATACACATATATA [CACACA_site7524],8.34 ± 0.31
16,GCAACACAAAAAATTACACACAAAAAAAATATATTA [CACACA_site916],8.29 ± 0.61
17,TCCTTTATTTTTAAAGTGCATATACATGTACATTAT [GTGCAC_site9445],8.72 ± 0.3
18,GAAGAAAAAAAATATACACACATACGATCATACATA [CACACA_site5227],8.54 ± 0.42
19,GTGCCATTTAAAAAATGTACAAGAAAATGTTCATCA [XGTACX_site2865],8.36 ± 0.43
20,TATTTTAATTTTTTTTTGTTTTTTCTAATACATGTA [CACACA_negctrl_site1399],8.32 ± 0.59
21,TGGTATTGAATTTTTTGTACACATAAAATATATATA [XGTACX_site7614],8.37 ± 0.3
22,ACATATGTTAAAAAGGCATGCATTCTTTTTATTTTA [TGCATGCA_site1043],8.86 ± 0.26

row,Sequence,gcPBM binding intensity (ln)
1,ATTTTATTTTCTCACACACACATATATATATATATA [CACACA_site5781],10.4 ± 0.4
2,TTTTTTTTGGTATAATGTACATTTTCACTTATGTAT [XGTACX_site3259],8.7 ± 0.4
3,ACCAAAAAAAAAAAAAAAAAAATATACATATATATA [GTGCAC_negctrl_site582],8.41 ± 0.11
4,TATATATATATATATTGTACTAGTGCATATATATAC [XGTACX_site7926],10 ± 0.24
5,ACGTGATAAATAAATACATGCATAGAAAGATGCATA [TGCATGCA_site91],8.77 ± 0.29
6,TACAATGAAAAAATAACATGCAATTATATTTCTCTT [TGCATGCA_site833],8.3 ± 0.35
7,TTTAAATATTTTAATACACACACGATATGTACAAAA [CACACA_site4455],8.52 ± 0.38
8,ATAACATATTTCTTTTGTACTCAAAATAAAATTAAT [XGTACX_site2479],8.29 ± 0.33
9,AAATATATTTTATTTTGTACTTATGTATAAAATATA [XGTACX_site914],8.38 ± 0.33
10,AATTTTGTTGAGCACACACACATACATACATACATA [CACACA_site3154],8.72 ± 0.42
11,ATTAAATTTCCTTGAGTGCACATTTTGTTAAAATAT,8.875 ± 0.021
12,ACTTTATTTTCCTGTACACACATTTGACATATTAAA [CACACA_site3378],9.36 ± 0.39
13,AAAAACAAAAAAAAAACACACAATTCTAGTTATTTT [CACACA_site2767],8.09 ± 0.52
14,CACCAAACTAAATGTACACACATACATAAATATAAA [CACACA_site4765],8.6 ± 0.45
15,TTTTTTTTCCTAATGTGTACTAAAAATGAACAATAA [XGTACX_site5248],8.62 ± 0.13
16,ATATTTTTTTCATAGACACACACAATATATCTGTTT [CACACA_site8993],8.63 ± 0.4
17,AAAAAAAAGAAACACACACACATACACATAAATATA [CACACA_site3807],8.79 ± 0.47
18,AACATTATTTTGTGTACACATTCGGTTATATTATAT [CACACA_site5628],9.15 ± 0.37
19,TTTTTTATTTTATTTTATTTTTATTTTTTTTTTTTT [GTGCAC_negctrl_site596],8.21 ± 0.47
20,ATAAAATACATATAAACACACATATAAACCGACATA [CACACA_site2477],8.9 ± 0.43
21,TTTTACTTAAGACACACACACACAAAAAAAAAAAAA [CACACA_site6573],8.46 ± 0.59
22,TAAACATAAATATGCACACATATACAGATATTCATA [CACACA_site5471],8.29 ± 0.4
